# Source: the supplement of paper PMC12645437, “Orthogonal IMiD-Degron Pairs Induce Selective Protein Degradation in Cells” (ACS Chemical Biology, 2025)
# This is one part of the list.
# Target: no compound (DMSO)
# Assay: log2 fold change of degron read counts, EGFP-low vs EGFP+ sorted cells; higher = lower degron-EGFP level without compound (poor expression or instability)
# Details: compound: DMSO control; 18 h
# 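Note: jurkat cells carrying a lentiviral library of mutant zinc finger degrons fused to EGFP plus mCherry, mCherry+ cells FACS sorted, degron abundance counted by next-generation sequencing.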
row,Sequence,log2 fold change of degron read counts
1,FSCNICGAYFTQKGNLLRHIKL,1.01
2,FWCNVCGACFTQKGNLLRHIKL,0.366
3,FICEICGHMFTQKGNLLRHIKL,-1.87
4,FQCNICGALFTQKGNLLRHIKL,-0.835
5,LQCPICGFRCTQKGNLLRHIKL,0.0683
6,FNCNQCGRRFTQKGNLLRHIKL,0.241
7,FCCEICGHSFTQKGNLLRHIKL,-1.5
8,FSCEICGHMFTQKGNLLRHIKL,-1.26
9,LFCEICGFRCTQKGNLLRHIKL,0.58
10,FTCSVCGHQFTQKGNLLRHIKL,-1.58
11,LSCPICGFTCTQKGNLLRHIKL,-0.147
12,LECPICGFSCTQKGNLLRHIKL,0.119
13,LKCNQCGFNCTQKGNLLRHIKL,1.3
14,FMCPICGAPFTQKGNLLRHIKL,0.604
15,FLCNQCGRWFTQKGNLLRHIKL,0.928
16,FRCDICGAEFTQKGNLLRHIKL,-2.11
17,FDCPICGHWFTQKGNLLRHIKL,0.237
18,FDCPICGRCFTQKGNLLRHIKL,-0.362
19,FKCPQCGARFTQKGNLLRHIKL,-0.361
20,FWCNQCGHIFTQKGNLLRHIKL,1.99
21,FFCPVCGASFTQKGNLLRHIKL,0.293
22,FKCSVCGHHFTQKGNLLRHIKL,-0.0877
23,LQCPICGFSCTQKGNLLRHIKL,0.126
24,FYCPQCGAYFTQKGNLLRHIKL,0.58
25,FHCEVCGAVFTQKGNLLRHIKL,-1.44

row,Sequence,log2 fold change of degron read counts
1,FACPICGAEFTQKGNLLRHIKL,-0.363
2,FHCNQCGHMFTQKGNLLRHIKL,0.467
3,FCCNQCGANFTQKGNLLRHIKL,-0.619
4,FLCEICGRWFTQKGNLLRHIKL,-0.057
5,FHCPQCGAPFTQKGNLLRHIKL,-0.753
6,FCCEQCGAMFTQKGNLLRHIKL,-1.98
7,FFCPICGRDFTQKGNLLRHIKL,-0.25
8,FLCNICGAPFTQKGNLLRHIKL,-0.178
9,FECNICGAMFTQKGNLLRHIKL,-1.71
10,FNCDQCGAGFTQKGNLLRHIKL,-0.617
11,FACDICGAWFTQKGNLLRHIKL,-0.538
12,FICPVCGAEFTQKGNLLRHIKL,-0.436
13,FSCPICGHNFTQKGNLLRHIKL,-0.388
14,FRCDICGAHFTQKGNLLRHIKL,-0.93
15,FTCNQCGHSFTQKGNLLRHIKL,-0.549
16,FSCEICGRTFTQKGNLLRHIKL,-1.96
17,FLCEVCGAKFTQKGNLLRHIKL,-1.57
18,LTCPICGFCCTQKGNLLRHIKL,0.833
19,FCCEQCGALFTQKGNLLRHIKL,-2.18
20,FNCEICGHIFTQKGNLLRHIKL,-0.0963
21,FCCPVCGACFTQKGNLLRHIKL,-0.126
22,FACPICGANFTQKGNLLRHIKL,0.0159
23,FECNQCGHLFTQKGNLLRHIKL,-1.06
24,LDCEICGFLCTQKGNLLRHIKL,1.39
25,FACEICGAYFTQKGNLLRHIKL,-0.292
